{"source": "paper PMC10668032", "note": "This is one part of the list. At the low end of the ranking the order means little.", "data": [{"molecular_target": "SIX1-Q177R homeodomain (UniProt Q15475)", "experiment": "universal protein binding microarray", "conditions": "Universal all-10-mer PBM (8x60K, AMADID 030236), 300 nM GST-tagged protein, Alexa Fluor 488 anti-GST; buffer, salt, pH and temperature not stated; high values mean tight binding; most listed sequences are background and not binding sites; double strand, one strand shown", "units": {"binding signal": "E-score"}, "values": [{"sequence": "CGTTGCCA", "binding signal": -0.0156}, {"sequence": "CTTCCCCA", "binding signal": -0.0323}, {"sequence": "AAGGTTCG", "binding signal": -0.0568}, {"sequence": "AAGTCCGT", "binding signal": -0.104}, {"sequence": "AGAGGATC", "binding signal": 0.0631}, {"sequence": "ACTCTATG", "binding signal": 0.0352}, {"sequence": "GGCGGGGA", "binding signal": 0.0148}, {"sequence": "GATGTTAA", "binding signal": -0.0502}, {"sequence": "CGAGGCCA", "binding signal": -0.109}, {"sequence": "CAAAAGAG", "binding signal": -0.0613}, {"sequence": "CGTATTAC", "binding signal": 0.0844}, {"sequence": "GTGCGGTA", "binding signal": 0.119}, {"sequence": "AAGTACAT", "binding signal": -0.0131}, {"sequence": "GAAACAAA", "binding signal": -0.312}, {"sequence": "TAATCCTA", "binding signal": -0.075}, {"sequence": "TACGTAGA", "binding signal": -0.184}, {"sequence": "AGGAACAG", "binding signal": -0.0352}, {"sequence": "GACCTCTA", "binding signal": -0.313}, {"sequence": "AACGGTCC", "binding signal": -0.34}, {"sequence": "CGACGGCA", "binding signal": 0.127}, {"sequence": "GGGCTTCA", "binding signal": -0.176}, {"sequence": "GGTAGAAA", "binding signal": -0.067}, {"sequence": "CAGCACCA", "binding signal": 0.182}, {"sequence": "AGGAATAT", "binding signal": -0.185}, {"sequence": "AAACATAG", "binding signal": -0.249}, {"sequence": "TTTTAAAA", "binding signal": -0.113}, {"sequence": "CACATTCA", "binding signal": -0.228}, {"sequence": "ACGTTTCG", "binding signal": 0.0722}, {"sequence": "TAACCTAA", "binding signal": -0.0395}, {"sequence": "ATTCGCGG", "binding signal": -0.0116}, {"sequence": "ATGAACGA", "binding signal": -0.143}, {"sequence": "TCCCGACA", "binding signal": 0.155}, {"sequence": "CTACGTCA", "binding signal": 0.0203}, {"sequence": "TCCGAGGA", "binding signal": 0.0582}, {"sequence": "CCATCTAC", "binding signal": -0.0891}, {"sequence": "GAGCGTAA", "binding signal": -0.157}, {"sequence": "ACTAGGGA", "binding signal": 0.18}, {"sequence": "ACGTTTAG", "binding signal": 0.0741}, {"sequence": "AACCGGCC", "binding signal": -0.203}, {"sequence": "AAACCCCT", "binding signal": 0.178}, {"sequence": "AGTCCGTC", "binding signal": -0.087}, {"sequence": "CTCAGTGC", "binding signal": 0.0617}, {"sequence": "CTGAGCCC", "binding signal": -0.0399}, {"sequence": "ATAAACGA", "binding signal": -0.13}, {"sequence": "AAGGTTAT", "binding signal": -0.124}, {"sequence": "ATGAACTC", "binding signal": 0.0152}, {"sequence": "ATGCCACA", "binding signal": 0.0994}, {"sequence": "ATCAGGAT", "binding signal": -0.0625}, {"sequence": "CAAACTAG", "binding signal": 0.152}, {"sequence": "CAGGTTTC", "binding signal": -0.0409}, {"sequence": "CACCTACG", "binding signal": 0.232}, {"sequence": "CACATGAG", "binding signal": -0.0336}, {"sequence": "ACCGCGTA", "binding signal": 0.15}, {"sequence": "CATTATTA", "binding signal": -0.152}, {"sequence": "GAAAGGTC", "binding signal": -0.0115}, {"sequence": "CTGGGGCC", "binding signal": 0.0347}, {"sequence": "GGAACACA", "binding signal": 0.189}, {"sequence": "AAGCAAAA", "binding signal": -0.288}, {"sequence": "AAATTGGC", "binding signal": -0.0777}, {"sequence": "CATCTGTA", "binding signal": -0.209}, {"sequence": "CGGGGACC", "binding signal": -0.0914}, {"sequence": "ATATCGCA", "binding signal": -0.0787}, {"sequence": "GGTCTTGA", "binding signal": 0.0751}, {"sequence": "GATACAAA", "binding signal": -0.0291}, {"sequence": "ATTCGTGC", "binding signal": -0.163}, {"sequence": "CACCGCTA", "binding signal": 0.12}, {"sequence": "AATCTCTA", "binding signal": -0.232}, {"sequence": "CCCTATAC", "binding signal": 0.122}, {"sequence": "GACAAATA", "binding signal": -0.192}, {"sequence": "CTATCTGC", "binding signal": -0.145}, {"sequence": "AAGGATAT", "binding signal": -0.101}, {"sequence": "ACTTTGCC", "binding signal": -0.342}, {"sequence": "ACGCTATA", "binding signal": -0.149}, {"sequence": "AGTACTTA", "binding signal": -0.167}, {"sequence": "AGCCTCCG", "binding signal": -0.114}, {"sequence": "AGCGAACA", "binding signal": 0.00511}, {"sequence": "GTCTGAGA", "binding signal": -0.055}, {"sequence": "CGAAAGGC", "binding signal": -0.173}, {"sequence": "AAATGAAC", "binding signal": -0.0761}, {"sequence": "AAGTGTCA", "binding signal": 0.418}, {"sequence": "GTCAGGTA", "binding signal": 0.0967}, {"sequence": "ATTGAAGA", "binding signal": -0.154}, {"sequence": "ACAAAAGT", "binding signal": -0.287}, {"sequence": "CCCACAGC", "binding signal": 0.144}, {"sequence": "ACATAAGC", "binding signal": -0.173}, {"sequence": "AGTCACAC", "binding signal": 0.326}]}]}
